In PubChem BioAssay AID1030 (National Center for Advancing Translational Sciences (NCATS), 2008):
Screen size: about 220,000 compounds; about 16,000 (7.3%) were called active. The inconclusive results got no clear call from the source; some entries with a clear call stand among them for comparison. Calls follow the shape of the dose curve; as a rule, active = well fitted inhibition curve with a large enough effect (not every such curve was filed as active); inconclusive = small, poorly fitted or top-dose-only effect, or another doubt; inactive = no such curve, though single readings can be large or run the other way. No potency is given beside an inconclusive call; the fits are too rough.

The compounds below were run against Aldehyde dehydrogenase 1A1 (Homo sapiens) (UniProt P00352) (assay: qHTS Assay for Inhibitors of Aldehyde Dehydrogenase 1 (ALDH1A1)). Settings: Purified ALDH1A1, NADH fluorescence, propionaldehyde substrate; series mostly up to 75.3 µM.
Potency is read from the fitted curve at half-maximal effect; tags tell the direction and shape of the fitted curve.

UniProt P00352, sequence (P00352 whole entry, looked up): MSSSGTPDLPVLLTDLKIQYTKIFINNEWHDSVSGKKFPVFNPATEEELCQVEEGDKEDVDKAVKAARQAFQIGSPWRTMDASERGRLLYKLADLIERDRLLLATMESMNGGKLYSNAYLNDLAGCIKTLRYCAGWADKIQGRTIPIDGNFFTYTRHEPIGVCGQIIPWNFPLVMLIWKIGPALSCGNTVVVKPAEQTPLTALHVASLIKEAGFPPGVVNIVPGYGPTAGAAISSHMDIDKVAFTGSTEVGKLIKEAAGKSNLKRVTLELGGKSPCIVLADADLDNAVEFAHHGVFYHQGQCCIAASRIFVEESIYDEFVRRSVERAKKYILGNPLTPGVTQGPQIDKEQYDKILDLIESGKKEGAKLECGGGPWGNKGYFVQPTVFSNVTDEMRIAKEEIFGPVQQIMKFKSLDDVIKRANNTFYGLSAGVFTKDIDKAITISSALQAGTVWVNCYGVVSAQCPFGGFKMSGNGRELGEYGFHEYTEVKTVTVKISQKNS

SMILES	Potency
Cc1ccc2nc(N3CCOCC3)c(C=O)c(=O)n2c1	active: 25.1 µM
COC(=O)N[C@H](c1ccccc1)[C@@]1(C)C[C@@H]1[C@@H](C)C(=O)Nc1ccc2ccccc2c1	active: 7.94 µM
O=C(O)/C(=C\c1cccc(F)c1)c1ccc(S(=O)(=O)N2CCCCC2)s1	inconclusive [inhibitor, single point]
Cc1oc(-c2cccs2)nc1CN1CCN(CC(C)C)C(CCO)C1 (centres undefined)	inconclusive [inhibitor, single point]
CCOCc1c(C(=O)NC2=Nc3ccccc3NC(CC)=C2C(=O)OCC)oc2ccccc12	inconclusive [inhibitor, single point]
O=C(COC(=O)c1ccccc1S(=O)(=O)N1CCCCC1)NCC(F)(F)F	inactive
CC(C)NC(=O)C1CCN(C(=O)c2cc3sccc3n2Cc2ccc(F)cc2)CC1	active: 12.6 µM
Cc1ccc(CN2C(=O)N/C(=C\c3ccc(-c4ccc(C(=O)O)cc4C)o3)C2=O)cc1	inconclusive [inhibitor, partial curve]
CC(O)C1CCC2C3CC[C@H]4CC(O)CCC4(C)C3CC3(OCCO3)C12C (some centres undefined)	inconclusive [inhibitor, single point]
O=C(CSc1nnnn1C1CCCC1)NCc1ccc2c(c1)OCO2	active: 20 µM
NCCCCc1cn(CC(=O)N2CCNCC2)nn1	inconclusive [inhibitor, single point]
Cn1c(SCC(=O)c2ccc(F)cc2)nnc1-c1ccccn1	inconclusive [inhibitor, single point]
CC1CCN(S(=O)(=O)c2ccc(Cl)cc2Br)CC1	inactive
CCC(=O)Nc1cccc(C(=O)c2ccccc2)c1	inactive
NC1=NC(S)C2N=CN=C2N1 (centres undefined)	inconclusive [inhibitor, single point]
CC1SC(c2cccc(Cl)c2)NC1=O (centres undefined)	active: 11.2 µM
CC(CC(=O)Nc1ccccc1)n1ccnc1 (centres undefined)	inactive
CCc1ccc2nc(NC(=O)CSCc3c(C)noc3C)sc2c1	inconclusive [inhibitor, single point]
CCC(C)NC(=O)CNC(=S)N(Cc1ccc(F)cc1)C1CCCCC1 (centres undefined)	inconclusive [inhibitor, single point]
Cc1cccc(-n2ncc3c(NCCCN4CCCC4=O)ncnc32)c1	inconclusive [inhibitor, partial curve]
COc1ccc(CCNC(=O)c2ccc3c(c2)NC(=O)C(N2CCOCC2)S3)cc1OC (centres undefined)	inconclusive [inhibitor, single point]
O=C(O)CC1(CC(=O)Nc2ccc(Oc3cccc(C(F)(F)F)c3)nc2)CCCC1	active: 7.94 µM
O=C(Nc1cnc2ccccn2c1=O)c1ccc(Cl)cc1	inactive
O=C(NCCCO)/C(=C\c1cn(-c2ccccc2)nc1-c1cccnc1)NC(=O)c1ccccc1	active: 1.78 µM
Cc1cc(C)c2c(CC(=O)Nc3nccs3)coc2c1	inconclusive [inhibitor, single point]

SMILES	Potency
Cc1onc(-c2ccccc2Cl)c1C(=O)Nc1cccc(-c2nc3ncccn3c2C)c1	inconclusive [inhibitor, partial curve]
NC1=NC2=C(CCCC2)C2(CCCCC2)S1	inconclusive [inhibitor, single point]
COc1cccc(CCc2nnc(CCC(=O)N3CCN(Cc4ccccn4)CC3)o2)c1	active: 8.91 µM
COc1ccc(/C=C2\CCCC(C(=O)C(F)(F)F)=C2O)cc1	active: 0.447 µM
COc1ccc(F)cc1C(=O)C1CCCN(C(=O)CCN2CCCCO2)C1 (centres undefined)	inconclusive [inhibitor, partial curve]
CCOC(=O)c1ccc(Nc2nnc(C(C)(C)C)c(=O)[nH]2)cc1	active: 14.1 µM
CN(C)CCNS(=O)(=O)c1ccc(N2CCN(c3ccc(F)cc3)CC2)c([N+](=O)[O-])c1	inactive
CC1CCN(c2c(NCC3CCC(C(=O)N4CCCC(C)C4)CC3)c(=O)c2=O)CC1 (centres undefined)	inactive
CC(C)(C)c1cn(-c2ccc(Cl)cc2)c(=S)[nH]1	inactive
O=C1C(Cl)=C(NC2CCc3ccccc32)C(=O)c2ncccc21 (centres undefined)	active: 11.2 µM
CCN(CC)CCCN1C(=O)C(O)=C(C(=O)c2cc3cccc(OC)c3o2)C1c1ccncc1 (centres undefined)	inconclusive [inhibitor, single point]
CCN(CCCNC(=O)CCCOc1cc(=O)n(C)c2ccccc12)Cc1ccccc1	inactive
O=C(c1ccc2c(c1)N(Cc1cccc(Cl)c1)C(=O)c1ccccc1S2(=O)=O)N1CCN(c2ccccn2)CC1	active: 20 µM
NS(=O)(=O)c1ccc(CCNC(=O)c2ccc3nc4ccc(Cl)cc4c(=O)n3c2)cc1	inconclusive [inhibitor, partial curve]
C=CCNC(=S)N1CCN(c2ccc([N+](=O)[O-])cc2)CC1	inconclusive [inhibitor, single point]
Cn1c(NC(=O)c2cccnc2)nc2ccccc21	inconclusive [inhibitor, single point]
Cc1ccc(NC2=C(CC(=O)O)C(c3ccccc3)N(c3ccc(C)cc3)C2=O)cc1 (centres undefined)	inconclusive [inhibitor, single point]
CCOC(=O)CC1C(=O)NCCN1S(=O)(=O)c1cc(Cl)c(Cl)cc1Cl (centres undefined)	inactive
COC(=O)C1CCN(C(=O)c2cc(=O)[nH]c3ccccc23)CC1	inconclusive [inhibitor, single point]
Cc1nnc(SC(C(=O)Nc2ccc(Cl)c([N+](=O)[O-])c2)c2ccccc2)[nH]c1=O (centres undefined)	inconclusive [inhibitor, single point]
C=CCSc1nc(-c2ccc3c(c2)OCO3)cc(C(F)(F)F)c1C#N	inconclusive [inhibitor, partial curve]
CS(=O)(=O)N(Cc1ccc(C(=O)NCc2ccco2)cc1)c1ccccc1	inactive
O=C(CNc1ccc(Br)cc1)c1ccc(O)cc1	active: 11.2 µM
CCOC(=O)C1CCN(Cc2ccc(OC)cc2OC)CC1	inconclusive [inhibitor, partial curve, poor fit]
Cn1c(=O)n(C)c2cc(/C=N/n3cnnc3)ccc21	inconclusive [inhibitor, single point]

SMILES	Potency
COC(=O)Cc1ccc(NC(=S)Nc2ccc(N3CCOCC3)cc2)cc1	inconclusive [inhibitor, single point]
O=c1c2ccccc2sn1-c1nccs1	active: 12.6 µM
Cc1c(C(=O)N2CCN(CCc3ccccc3)CC2)oc2ccccc12	active: 14.1 µM
CCOC(=O)c1ccc(CNCc2ccc(C)cc2)cc1	inactive
Cc1c(Cc2ccc3c(c2)OCO3)sc(NC(=O)c2ccccc2)c1C(N)=O	inconclusive [inhibitor, single point]
CCCCSC(=O)Nc1ccccc1	inconclusive [inhibitor, partial curve]
COC(=O)CSc1nnc(CNc2ccc(Cl)cc2)n1Cc1ccccc1	inconclusive [inhibitor, single point]
CCn1c(NC(C)=O)nc2ccccc21	inactive
CN(C)C(=O)c1ccc2c(c1)n(C)c(=O)n2C	inactive
COc1ccc(OCC(=O)N/N=C(\C)CC(=O)Nc2cccc([N+](=O)[O-])c2)cc1	inconclusive [inhibitor, single point]
Nc1cc([N+](=O)[O-])ccc1Nc1ccccc1	inactive
Cc1cc(C)c(C#N)c(SCC(=O)Nc2ccccc2C(N)=O)n1	inconclusive [inhibitor, single point]
COc1ccc(C(=O)OC(COc2ccccc2)Cn2ccnc2)cc1 (centres undefined)	inconclusive [inhibitor, single point]
CCC1CCCCN1C(=O)CSc1nc2ccsc2c(=O)n1Cc1ccccc1 (centres undefined)	inconclusive [inhibitor, single point]
O=S(=O)(Nc1cc2nc3ccccc3nc2n1Cc1ccccc1)c1ccc(Cl)cc1	inconclusive [inhibitor, partial curve]
CC(=O)c1ccc(NC(=O)CSc2nccn2CCc2ccccc2)cc1	inconclusive [inhibitor, single point]
CSc1ccc(S(=O)(=O)N(CC(=O)NN=C2CCN(C)CC2)c2ccc(C)cc2)cc1	active: 5.01 µM
O=C(CN(Cc1ccco1)S(=O)(=O)c1cccs1)Nc1ccccc1C(F)(F)F	inconclusive [inhibitor, partial curve, poor fit]
Cc1cc(=O)oc2cc(OCC(=O)NCCCN3CCOCC3)ccc12	inconclusive [inhibitor, partial curve]
CN(Cc1ccc(OC(F)F)cc1)Cc1nc2c(Br)cc(Br)cc2c(=O)[nH]1	inactive
COc1ccc(Oc2nnnn2-c2ccccc2)cc1	active: 7.94 µM
CCOC(=O)c1csc(NC(=O)c2ccc(S(=O)(=O)N(C)C)cc2)n1	inconclusive [inhibitor, partial curve, poor fit]
C/C(CCC1CC(C)OC1=O)=N/Nc1nc(-c2ccccc2)cs1 (centres undefined)	inconclusive [inhibitor, single point]
COc1ccc(NC(C)C(=O)N/N=C/c2ccccc2OCc2ccc(Br)cc2)cc1 (centres undefined)	inconclusive [inhibitor, single point]
